About 1,700 (3.3%) of roughly 52,000 compounds were called active. Cut-off read from the data, not from the text of the source: active = survival mostly below about 52% (no sharp cut-off); inactive = mostly above about 56%. The list shows a part of the results.
tested on: Wild type; test: S. aureus survival, RN4220 and DeltatarO strains – OD600, teichoic acid synthesis inhibitors, primary screen (AID 463173); conditions: S. aureus RN4220 wild type/DeltatarO growth, OD600, 18 h, stronger effect = lower value, screened at 18.75 µg/mL (by protocol)

Compound | survival
CCc1ccc(NC(=O)CC2C(=O)OCCN2CC)cc1 (centres undefined) | active: -15%
CC(C)CNC(=O)CCSc1nc(-c2ccc3c(c2)OCO3)cc(C(F)(F)F)n1 | inactive: 88%
CCc1ccccc1NC(=O)Cn1ncc2c(C)n(Cc3ccccc3F)c(C)c2c1=O | inactive: 90%
Cc1ccc(C)c(N2CCN(c3ccc(NC(=O)c4cccs4)cc3C(=O)O)CC2)c1 | inactive: 131%
O=C(Cn1c(=O)n(Cc2nc(-c3ccccc3)no2)c(=O)c2cc3c(cc21)OCO3)Nc1ccc(Cl)cc1 | inactive: 82%
OC1CCN(Cc2nnnn2Cc2ccccc2)CC1 | inactive: 108%
CCN(CC)CCCNC(=O)c1c(C)oc2ncn(CC(C)C)c(=O)c12 | inactive: 81%
Cn1c(=O)n(C)c2cc(NS(=O)(=O)c3ccc(Br)cc3)c(NCc3ccccc3)cc21 | inactive: 70%
CCc1ccc(-n2nc(C)c3c(C)cc(=O)n(CC(=O)Nc4ccc(C)c(F)c4)c32)cc1 | inactive: 136%
CCOc1ccc(-n2c(=O)c3c(C)c(C)sc3n(CC(=O)c3ccccc3)c2=O)cc1 | inactive: 146%
CN(C)c1ccc(NC(=O)CCSc2nc(-c3ccco3)cc(C(F)(F)F)n2)cc1 | inactive: 84%
CCNc1nnc(-c2ccccc2)s1 | inactive: 114%
CC1CCc2c(sc(NC(=O)CCCOc3ccc(C(C)(C)C)cc3)c2C(N)=O)C1 (centres undefined) | inactive: 79%
COc1cc(Br)c(C2CC(=O)Nc3cc(OC)c(OC)c(OC)c32)cc1OC (centres undefined) | inactive: 94%
COCCCNC(=O)c1cc2c(=O)n3cccc(C)c3nc2s1 | inactive: 94%
Cc1c(C)n(Cc2ccc(Cl)cc2)c2ccc(C(=O)NCCc3ccc(S(N)(=O)=O)cc3)cc12 | inactive: 127%
Nc1c(-c2nc(-c3ccc(Cl)cc3)cs2)c2ccccn2c1C(=O)c1ccc2c(c1)OCO2 | inactive: 105%
CCCCc1nc2ccccc2n2c(-c3ccc(C)cc3)c3c(=O)n(C)c(=O)n(C)c3c12 | inactive: 67%
O=S(=O)(Nc1cccc(-c2ccc(N3CCCCC3)nn2)c1)c1cccc(F)c1 | inactive: 119%
CC1CCN(S(=O)(=O)c2ccc3c(c2)N(CC(=O)NC(C)c2ccccc2)C(=O)CO3)CC1 (centres undefined) | inactive: 132%
CSc1cccc(NC(=O)CN(c2ccccc2)S(=O)(=O)N(C)C)c1 | inactive: 136%
Cc1ccc(C(=O)NS(=O)(=O)c2ccccc2)cc1 | inactive: 108%
COc1ccc(C2C(=O)N(C3CCC(C)CC3)CC(=O)N2CCc2ccccc2)cc1OC (centres undefined) | inactive: 57%

Compound | survival
Cc1cc(N2CCCCC2)nc2ccc(NC(=O)c3cccc(F)c3)cc12 | inactive: 46%
Cc1ccc(C(=O)N2CCc3cc(CNC(=O)COc4ccccc4)ccc32)cc1 | inactive: 82%
CCCc1nnc(NC(=O)Cc2coc3cc(C)cc(C)c23)s1 | inactive: 91%
O=S(=O)(c1cccc(C(F)(F)F)c1)n1c(/C=C/c2ccccc2)nc2ccccc21 | inactive: 78%
O=C(Cn1c(=O)n(-c2ccccc2)c(=O)c2sc3ccccc3c21)N1CCCC1 | inactive: 84%
CCCN1CCN(CCCNC(=O)c2cnn(-c3ccc(F)cc3)c2-n2cccc2)CC1 | inactive: 88%
CCOc1ccc(Nc2nc3ccccc3n3c(CC)nnc23)cc1 | inactive: 63%
O=C(Nc1ccc(Br)cc1)C1CCN(S(=O)(=O)c2cccc3nsnc23)CC1 | inactive: 93%
CC(C)OCCCNC(=O)CCCn1c(SCC(=O)c2ccc(F)cc2)nc2c(sc3ccccc32)c1=O | inactive: 89%
O=[N+]([O-])c1cc(-c2nc(-c3cccnc3)no2)ccc1NCc1ccccc1 | inactive: 95%
CC(C)c1ccc(NC(=O)CN2C(=O)COc3ccc(S(=O)(=O)Nc4ccccc4)cc32)cc1 | inactive: 72%
COc1ccc(CCNC(=O)c2nnc(Cc3ccc(Cl)cc3)o2)cc1OC | inactive: 80%
O=C(NCC(c1ccco1)S(=O)(=O)c1ccc(Cl)cc1)c1ccccc1F (centres undefined) | inactive: 74%
COc1ccc(-c2nn3c(=O)cc(CN4CCN(C(=O)Nc5ccc(C)c(Cl)c5)CC4)nc3s2)cc1 | inactive: 80%
Cc1ccc2oc(=O)c3cnn(CC(=O)Nc4cccc(C(F)(F)F)c4)c3c2c1 | inactive: 89%
NC(=O)/C(=C\c1ccco1)NC(=O)c1ccco1 | inactive: 106%
COCC(=O)N1c2nc(C(C)C)nn2C2(CCCCC2)[C@@H]2CCCC[C@@H]21 | inactive: 94%
CCOC(=O)c1sc(NC(=O)c2cc(CC)on2)c(C(=O)OCC)c1C | inactive: 78%
Cc1ccc(NS(=O)(=O)c2ccc3[nH]c4c(c3c2)CCCCCC4)cc1Cl | inactive: 71%
CCCOC(=O)c1ccc(NC(=O)Cc2csc(C)n2)cc1 | inactive: 121%
COC(=O)c1ccc(S(=O)(=O)N(C)C)o1 | inactive: 115%
Cc1c(C(=O)NCc2ccccc2)sc2nc3n(c(=O)c12)CCC3 | inactive: 107%
CCC(=O)N1CCc2cc(Br)cc(S(=O)(=O)NCc3ccc(Cl)cc3)c21 | inactive: 71%

Compound | survival
Cc1cccc(N2C(=O)CSC23C(=O)N(Cc2cccc(C(F)(F)F)c2)c2ccccc23)c1 (centres undefined) | inactive: 153%
CSc1nc2sc3c(c2c(=O)n1-c1ccccc1C)CCCC3 | inactive: 99%
Cc1nc(N2CCCC2)c2c(C(=O)N3CCN(c4cccc(Cl)c4)CC3)c(C)oc2n1 | inactive: 66%
COc1ccc(N2CCN(C(=O)c3ccc(CS(=O)(=O)c4ccc(Br)cc4)o3)CC2)cc1 | inactive: 132%
C=Cc1ccc(CSc2nc(-c3ccccc3Cl)nc3c2Cc2c(CO)cnc(C)c2O3)cc1 | inactive: 81%
Cc1ccc(N2CC(C)Cn3c2nc2c3c(=O)n(CC(=O)O)c(=O)n2C)cc1 (centres undefined) | inactive: 72%
CN(C)CCNC(=O)CCCN1C(=O)c2cccnc2Oc2ccc(Cl)cc21 | inactive: 83%
O=C(NC1CCCC1)c1cnn2c(C(F)F)cc(-c3ccccc3)nc12 | inactive: 122%
CCN(c1ccccc1)c1nnc(NC(=O)Nc2cccc(Br)c2)s1 | inactive: 86%
O=C1CC(c2nc3ccccc3n2CCCOc2ccccc2)CN1c1ccc(F)cc1 (centres undefined) | inactive: 107%
Cc1cc(C)cc(-n2ccn(CC(=O)Nc3ccccc3C(F)(F)F)c(=O)c2=O)c1 | inactive: 82%
CCN(c1ccc(OC)cc1)S(=O)(=O)c1nnc(NC(=O)c2ccccc2Cl)s1 | inactive: 58%
CN(C)C(=O)CSc1ccc(-c2ccc(F)cc2)nn1 | inactive: 99%
COCCCNC(=O)CSc1c2c(nc3ccc(Cl)cc13)CCCC2 | inactive: 73%
CCOc1ccc(C2c3c(oc4ccc(C)cc4c3=O)C(=O)N2Cc2ccc3c(c2)OCO3)cc1OC (centres undefined) | inactive: 142%
Cc1ccc(CNC(=O)c2ccc(CSCc3ccc(C)cc3)o2)cc1 | inactive: 87%
COc1ccc(NC(=O)c2sc3nc(C)c(C(=O)Nc4ccc(C)cc4C)c(-c4ccc(C)o4)c3c2N)cc1 | inactive: 77%
CCc1ccc(NC(=O)CN2C(=O)C3(SCC(=O)N3c3ccccc3)c3ccccc32)cc1 (centres undefined) | inactive: 152%
O=C(CNC1CCCC1)Nc1ccc(N2CCCC2)cc1 | inactive: 103%
Cc1ccc(Cl)cc1NC(=O)CSC1=Nc2ccccc2C2=NC(Cc3ccccc3)C(=O)N12 (centres undefined) | inactive: 83%
CC1(C)CC(=O)c2cc(-c3nc(-c4ccc(Cl)cc4)cs3)c(=O)n(-c3ccc(Cl)cc3)c2C1 | inactive: 67%
CCn1c(=N)c(S(=O)(=O)c2ccc(C)cc2)cc2c(=O)n3ccccc3nc21 | inactive: 102%
COc1ccc(NC(=O)Cn2nc(-c3ccncc3)ccc2=O)cc1Cl | inactive: 69%

Compound | survival
Cc1ccc(NC(=O)/C(C#N)=C/c2ccc(C)o2)cc1 | inactive: 83%
CC(C)CCNC(=O)c1ccc2c(c1)NC(=O)C(CS(=O)(=O)Cc1cccc(Br)c1)N2 (centres undefined) | inactive: 135%
COc1ccc(CCNc2ncnc3c2cnn3-c2cccc(Cl)c2)cc1 | inactive: 75%
Cc1cc(C)n(CCc2nc3c4ccccc4nc(N4CCN(c5ccccc5F)CC4)n3n2)n1 | inactive: 78%
COc1ccc(NC(=O)CSc2nc3ccccc3n2CC(=O)N(C)c2ccc(F)cc2)cc1 | inactive: 76%
COc1ccc(OCCCCn2c(C3CC(=O)N(c4cccc(Cl)c4)C3)nc3ccccc32)cc1 (centres undefined) | inactive: 96%
COc1ccc(-c2cc(C(F)F)nc(-n3nc(C)cc3C)n2)cc1 | inactive: 101%
Cc1ccc(Cn2ccnc2SCC(=O)NCc2ccc(F)cc2)cc1 | inactive: 70%
CCS(=O)(=O)N1CCc2cc(C(=O)NCCc3ccccc3)ccc21 | inactive: 104%
CCCN1CCN(CCNC(=O)Nc2ccc(OC)c(OC)c2)CC1 | inactive: 84%
CN1C(=O)C2(SCC(=O)N2c2cccc(C(F)(F)F)c2)c2ccccc21 (centres undefined) | inactive: 132%
CCOC(=O)C1CCC(CN(Cc2ccc(Cl)cc2)S(=O)(=O)c2ccc(Br)cc2)CC1 (centres undefined) | inactive: 71%
CCOC(=O)C1CCN(CC(=O)N2CCCc3c2c(=O)oc2ccc(OCc4ccccc4)cc32)CC1 | inactive: 110%
COc1ccc(-c2onc(C)c2C)cc1S(=O)(=O)N(C)Cc1ccco1 | inactive: 100%
CCOc1ccc(NC(=O)c2cn(C)c(=O)c3cc(OC)c(OC)cc23)cc1 | inactive: 66%
C=CCc1cccc2cc(C(N)=O)c(=N)oc12 | inactive: 102%
COc1ccc(CCN=C(N)Nc2nc(C)cc(C)n2)cc1 | inactive: 99%
CCS(=O)(=O)N1CC(=O)N(c2cccc(Cl)c2C)C(C)(C(=O)NC2CCCCC2)C1 (centres undefined) | inactive: 71%
CC(C)CSc1nnc2c3ccccc3n(C)c2n1 | inactive: 103%
CCN(CCCNC(=O)c1cc2cc3ccc(C)cc3nc2s1)c1ccccc1 | inactive: 127%
